Test results reported in ChEMBL document CHEMBL5518249, “Structure-Guided Discovery and Preclinical Assessment of Novel (Thiophen-3-yl)aminopyrimidine Derivatives as Potent ERK1/2 Inhibitors” (J Med Chem, 2024).

How the values were obtained:
[1] = system: RKO; test: cells; settings: Homo sapiens, 24 h
[2] = system: MDA-MB-231; test: cells; settings: Homo sapiens, MDA-MB-231, 24 h
[3] = in vivo; settings: Sprague-Dawley, rat, po, 10 mg/kg
[4] = in vivo; settings: Sprague-Dawley, rat, po, 10 mg/kg; remark: listed apart in the source
[5] = in vivo; settings: Sprague-Dawley, rat, iv, 1 mg/kg
[6] = in vivo; settings: Sprague-Dawley, rat, po, 10 mg/kg; remark: listed apart in the source
[7] = in vivo; settings: Sprague-Dawley, rat, po, 10 mg/kg; remark: listed apart in the source
[8] = in vivo; settings: Sprague-Dawley, rat, iv, 1 mg/kg; remark: listed apart in the source
[9] = in vivo; settings: Sprague-Dawley, rat, po, 10 mg/kg; remark: listed apart in the source
[10] = in vivo; settings: Sprague-Dawley, rat, iv, 1 mg/kg; remark: listed apart in the source
[11] = in vivo; settings: Sprague-Dawley, rat, iv, 1 mg/kg; remark: listed apart in the source
[12] = in vivo; settings: Sprague-Dawley, rat, iv, 1 mg/kg; remark: listed apart in the source
[13] = in vivo; settings: Sprague-Dawley, rat, iv, 1 mg/kg; remark: listed apart in the source
[14] = in vivo; settings: Sprague-Dawley, rat, iv, 1 mg/kg; remark: listed apart in the source
[15] = in vivo; settings: Sprague-Dawley, rat, iv, 1 mg/kg; remark: listed apart in the source
[16] = in vivo; settings: Sprague-Dawley, rat, po, 10 mg/kg; remark: listed apart in the source
[17] = in vivo; settings: Sprague-Dawley, rat, po, 10 mg/kg; remark: listed apart in the source
[18] = in vivo; settings: Sprague-Dawley, rat, iv, 1 mg/kg; remark: listed apart in the source

Compound	IC50 [1]	IC50 [2]	also measured
Cn1nccc1Nc1ncc(Cl)c(-c2csc(C(=O)NCc3ccc(OC(F)(F)F)cc3)c2)n1	> 50 µM	> 50 µM	
Cc1cc(Nc2ncc(Cl)c(-c3csc(C(=O)N[C@@H](CO)c4cccc(Cl)c4)c3)n2)ccn1	11.3 µM	15.3 µM	
Cn1nccc1Nc1ncc(Cl)c(-c2csc(C(=O)NCc3ccc(F)c(F)c3)c2)n1	19.5 µM	17.3 µM	
Cn1nccc1Nc1ncc(Cl)c(-c2csc(C(=O)NCc3ccc(F)c(Cl)c3)c2)n1	5.89 µM	6.23 µM	
Cn1nccc1Nc1ncc(Cl)c(-c2csc(C(=O)NCc3cccc(Cl)c3)c2)n1	16.3 µM	18.8 µM	
Cc1cc(Nc2ncc(Cl)c(-c3csc(C(=O)NCc4ccc(F)c(Cl)c4)c3)n2)n(C)n1	> 50 µM	> 50 µM	
Cc1cc(Nc2ncc(Cl)c(-c3csc(C(=O)NCc4ccc(F)c(Cl)c4)c3)n2)ccn1	3.54 µM	3.16 µM	
Cn1nccc1Nc1ncc(Cl)c(-c2csc(C(=O)NCc3ccc(Br)cc3)c2)n1	> 50 µM	> 50 µM	
Cn1nccc1Nc1ncc(Cl)c(-c2csc(C(=O)NCc3cccc(OC(F)(F)F)c3)c2)n1	> 50 µM	> 50 µM	
COc1cnc(Nc2ccnn2C)nc1-c1csc(C(=O)NCc2ccc(F)c(Cl)c2)c1	12.5 µM	11.6 µM	
COc1ccc(CNC(=O)c2cc(-c3nc(Nc4ccnn4C)ncc3Cl)cs2)cc1	> 50 µM	> 50 µM	
Cc1cc(Nc2ncc(Cl)c(-c3csc(C(=O)N[C@H](CO)c4cccc(Cl)c4)c3)n2)ccn1	5.36 µM	7.3 µM	
Cn1nccc1Nc1ncc(Cl)c(-c2csc(C(=O)NCc3ccccc3OC(F)(F)F)c2)n1	16 µM	20 µM	
Cn1nccc1Nc1ncc(F)c(-c2csc(C(=O)NCc3ccc(F)c(Cl)c3)c2)n1	29.6 µM	> 50 µM	
Cn1nccc1Nc1ncc(Cl)c(-c2csc(C(=O)Nc3ccc(F)c(Cl)c3)c2)n1	> 50 µM	> 50 µM	
Cc1cc(Nc2ncc(Cl)c(-c3csc(C(=O)N[C@H](CO)c4ccccc4)c3)n2)ccn1			half-life at 24 h [3]: 107 min; bioavailability at 24 h [4]: 17.6%; Vd at 24 h [5]: 4.52 L/kg; Cmax at 24 h [6]: 120 ng/mL; Tmax at 24 h [7]: 4 h; Vd at 24 h [8]: 2.79 L/kg; MRT inf at 24 h [9]: 4.28 h; MRT inf at 24 h [10]: 51.6 min; Cmax at 24 h [11]: 265 ng/mL; AUC(0-inf) at 24 h [12]: 307 ng·h/mL; clearance at 24 h [13]: 54.1 mL/min/kg; Tmax at 24 h [14]: 15 min; half-life at 24 h [15]: 57.6 min; AUC(0-inf) at 24 h [16]: 550 ng·h/mL; AUC(0-t) at 24 h [17]: 537 ng·h/mL; AUC(0-t) at 24 h [18]: 305 ng·h/mL
COc1cc(Nc2ncc(Cl)c(-c3csc(C(=O)NCc4ccc(F)c(Cl)c4)c3)n2)ccn1	21.1 µM	23.6 µM	
Cn1nccc1Nc1ncc(Cl)c(-c2csc(C(=O)NCc3cccc(F)c3)c2)n1	33.9 µM	29.6 µM	
Cn1nccc1Nc1ncc(Cl)c(-c2csc(C(=O)NCc3ccc(Cl)cc3Cl)c2)n1	> 50 µM	> 50 µM	
Cc1nn(C)cc1Nc1ncc(Cl)c(-c2csc(C(=O)NCc3ccc(F)c(Cl)c3)c2)n1	18.9 µM	20.1 µM	
O=C(NCc1ccc(F)c(Cl)c1)c1cc(-c2nc(NC3CCOCC3)ncc2Cl)cs1	6.23 µM	5.94 µM	
Cn1nccc1Nc1nccc(-c2csc(C(=O)NCc3ccc(F)c(Cl)c3)c2)n1	20.5 µM	22.7 µM	
